# The whole screen tested about 52,000 compounds, of which about 4,300 (8.3%) were called active. No stated cut-off is given here; in the data, active means survival mostly below about 52% (no sharp cut-off); inactive means mostly above about 56%. The list shows a part of the results.
# Test system: DeltatarO mutant
# Assay: S. aureus survival, RN4220 and DeltatarO strains – OD600, teichoic acid synthesis inhibitors, primary screen (AID 463173)
# Settings: S. aureus RN4220 wild type/DeltatarO growth, OD600, 18 h, hits give low values, screened at 18.75 µg/mL (by protocol)
row,SMILES,survival
1,O=C(c1cnc2cc(-c3ccccc3)nn2c1)c1cc([N+](=O)[O-])ccc1O,active: 9%
2,CC1(N2CCOCC2)CC(=O)N(c2ccccc2)O1 (configuration not stated),active: 62%
3,COc1cccc(/C=C/c2nc(C#N)c(N3CCCCC3)o2)c1,inactive: 56%
4,O=C(C1CCCN(S(=O)(=O)c2cccc3nonc23)C1)N1CCN(c2cccc(Cl)c2)CC1 (configuration not stated),inactive: 48%
5,Cc1ccccc1Cn1nc(C)c(NC(=O)c2cc(-c3ccc(F)cc3)on2)c1C,inactive: 72%
6,CCOc1ccccc1CNc1ncnc2c1nc1n2CCCC1,inactive: 88%
7,CSc1ccc(CCNC(=O)CCc2c(C)nc3c(-c4ccccc4)c(C)nn3c2C)cc1,inactive: 53%
8,COC(=O)c1ccc2c(=O)n(CCCCCC(=O)NCc3ccccc3)c(=O)[nH]c2c1,inactive: 71%
9,Cc1cccc(-n2c3c(cc(-c4nc(-c5ccc(Cl)cc5)cs4)c2=O)C(=O)CC(C)(C)C3)c1,active: 62%
10,O=C(CN1CCSc2ccccc21)N1CCN(c2ccccc2)CC1,inactive: 104%
11,CCOC(=O)c1c(NC(=O)/C=C/c2ccc(OC)c(OC)c2)sc(C(C)=O)c1C,inactive: 118%
12,CCc1ccc(NC(=O)c2cc(-c3cccs3)on2)cc1,inactive: 161%
13,CC(=O)c1ccc(NS(=O)(=O)c2cc3[nH]c(=O)c(=O)[nH]c3cc2C)cc1,inactive: 135%
14,Cc1ccc(C)c(N2CCN(C(=O)Cn3ncc4c(=O)oc5ccc(C)cc5c43)CC2)c1,inactive: 78%
15,COC(=O)c1ccccc1NC(=O)CSc1nc(-c2ccccc2)cc(C(F)(F)F)n1,active: 25%
16,CCOC(=O)c1c(C)[nH]c(C)c1S(=O)(=O)N1CCC(C(=O)Nc2ccc(F)cc2F)CC1,inactive: 86%
17,CCOc1ccccc1NC(=O)Cn1c(=O)n(CCCC(=O)NCCOC)c(=O)c2cc(OC)c(OC)cc21,inactive: 69%
18,CC(=O)c1ccc(NC(=O)c2ccc3c(c2)N(Cc2cccc(Cl)c2)C(=O)c2ccccc2S3(=O)=O)cc1,inactive: 92%
19,O=C(CSc1nnc(COc2cccc3ccccc23)n1CC1CCCO1)NC1CC1 (configuration not stated),inactive: 68%

row,SMILES,survival
1,Cc1ccc(NC(=O)CN2CCCN(Cc3ccccc3Cl)S2(=O)=O)c(C)c1,active: 17%
2,COc1ccc(CNC(=O)Cn2ccc3cc(S(=O)(=O)N4CCCCC4)ccc32)c(OC)c1,inactive: 72%
3,O=c1c2ccccc2nc2n1CCS2,inactive: 82%
4,COc1ccccc1CNC(=O)CCc1c(C)nc2cc(-c3ccccc3OC)nn2c1C,inactive: 58%
5,CCn1c(NN)nc2sc3c(c2c1=O)CC(C)(C)OC3,inactive: 104%
6,Cc1cc(Cl)ccc1NC(=O)CN1C(=O)CSc2ccc(S(=O)(=O)N(C)C)cc21,inactive: 77%
7,CCOCCc1nn2c(=O)cc(COC(=O)COc3ccccc3Cl)nc2s1,inactive: 88%
8,CCOc1ccc2nc(Nc3nc4c(c(=O)[nH]3)CCCC4)nc(C)c2c1,inactive: 95%
9,COc1ccccc1CNC(=O)C1CCCN(c2nn3cc(-c4ccc(F)cc4)nc3s2)C1 (configuration not stated),inactive: 84%
10,Cc1ccc(Cn2ccn(CC(=O)Nc3ccccc3C(F)(F)F)c(=O)c2=O)cc1,inactive: 113%
11,CCOc1ccc(CCNC(=O)CS(=O)Cc2nc(-c3ccc(C)cc3)oc2C)cc1OCC (configuration not stated),inactive: 76%
12,Cc1ccc2c(c1)sc1nc(-c3cc4ccccc4oc3=O)cn12,inactive: 82%
13,CCc1ccccc1NC(=O)Cn1nnc(-c2nc(-c3ccc(C)cc3)no2)c1N,inactive: 88%
14,CCOc1cc(CNC(=O)CCCn2c(=O)c3cccn3c3cccnc32)cc(OCC)c1OCC,inactive: 83%
15,COc1ccc(CCNC(=O)c2cc(Nc3cc(C)cc(C)c3)nc3ccccc23)cc1OC,inactive: 97%
16,CCc1ccccc1NC(=O)CSc1ncc(S(=O)(=O)c2ccccc2)c(N)n1,inactive: 81%
17,CCCN(CCC)S(=O)(=O)c1ccc(C)cc1,inactive: 97%
18,CC(=O)Nc1cccc(NC(=O)CSc2cn(CC(=O)N(C(C)C)C(C)C)c3ccccc23)c1,inactive: 62%
19,Cc1oc(-c2ccc(Cl)cc2)nc1Cn1c(=O)cc(C)c2c(C)nn(-c3cccc(F)c3)c21,inactive: 82%

row,SMILES,survival
1,Cc1ccc(C(=O)Nc2ccc(C(=O)OCc3cc(=O)n4nc(C5CC5)sc4n3)cc2)cc1,inactive: 83%
2,CCn1cc(C(=O)N2CCN(c3ccc(F)cc3)CC2)c(=O)c2cc(S(=O)(=O)N3CCOCC3)ccc21,inactive: 93%
3,COc1ccc(N2CCN(c3c4c(nc5nncn35)CCC4)CC2)cc1,inactive: 78%
4,NC(=O)CCc1c[nH]c2ccccc12,inactive: 78%
5,CCOC(=O)Cn1c(=O)oc2cc(S(=O)(=O)N3CCN(c4ccccc4F)CC3)ccc21,inactive: 65%
6,CCN(CC)C(=O)Cn1cc(SCC(=O)Nc2ccccc2F)c2ccccc21,inactive: 103%
7,COc1ccc(NC(=O)c2nnn(Cc3nc(-c4cc(OC)c(OC)c(OC)c4)oc3C)c2C)cc1,inactive: 61%
8,CCN(c1cccc(C)c1)S(=O)(=O)c1ccc2c(c1)NC(=O)CCS2,inactive: 72%
9,COc1cccc(CNC(=O)C2CCN(c3nn4c(=O)cc(C)nc4s3)CC2)c1,inactive: 89%
10,Cc1cccc(N(CC(=O)NCCSCc2ccc(Cl)cc2)S(C)(=O)=O)c1C,active: 33%
11,O=C(NC1CC(=O)N(c2ccccc2)C1)c1ccc(Br)o1 (configuration not stated),inactive: 87%
12,COc1ccc2cc(C#N)c(SCC(=O)N3c4ccccc4CC3C)nc2c1 (configuration not stated),inactive: 92%
13,O=C(NCCCN1CCN(c2cccc(Cl)c2)CC1)Nc1ccccc1C(F)(F)F,inactive: 73%
14,CCCC(C)C(=O)Nc1nc2ccccc2s1 (configuration not stated),inactive: 76%
15,O=C(COc1ccc(S(=O)(=O)NC2CCCCC2)cc1Cl)NCc1ccccn1,inactive: 104%
16,CCOc1ccc(NC(=O)c2cc3c(n(-c4ccc(OC)cc4)c2=O)CC(C)(C)CC3=O)cc1,inactive: 60%
17,COc1ccccc1Cn1c(CNS(=O)(=O)c2ccccc2Cl)nc2cccnc21,inactive: 91%
18,CC(=O)c1cccc(NC(=O)c2cccn2-c2nnc(N3CCCCC3)s2)c1,inactive: 92%
19,CC(C)(C)c1ccc(Oc2nc3ccccn3c(=O)c2/C=C(\C#N)c2nc3ccccc3[nH]2)cc1,inactive: 93%

# From PubChem BioAssay AID463173 (ICCB-Longwood Screening Facility, Harvard Medical School, 2010)
